{
  "source": "PubChem BioAssay (NCATS)",
  "note": "“And” between values parts separate entries of the source, which are not always exact repeats. Equal values may be shown once. The inconclusive results got no clear call from the source; some entries with a clear call stand among them for comparison. Where the call is inconclusive, the potency comes from a doubtful curve fit. The source made the active and inactive calls. Calls follow the shape of the dose curve; as a rule, active = well fitted inhibition curve with a large enough effect; inconclusive = small, poorly fitted or top-dose-only effect; inactive = flat fitted curve, though single readings scatter. Potency is read from the fitted curve at half-maximal effect; tags tell the direction and shape of the fitted curve.",
  "data": [
    {"target": "Aldehyde dehydrogenase, mitochondrial (Homo sapiens) (UniProt P05091)", "test": "qHTS for Inhibitors of the Aldehyde Dehydrogenase Family (ALDH2) Primary screen (AID 2061308); also: nearly all actives have a fitted effect of over 55% in size;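 as to activity change, negative = inhibition: plate controls were vehicle for no effect and reference inhibitor for full effect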", "conditions": "ALDH2 enzyme inhibition qHTS, 1536-well; series mostly up to 56 µM; activity change, negative = inhibition: at the top concentration", "values": [
      {"molecule": "CN(CCCOc1ccc(Cc2ccccc2)cc1)CCC(=O)O", "Potency": "inconclusive: 39.8 µM [inhibitor, single point]"},
      {"molecule": "CNc1oc(-c2ccc3c(c2)OCCO3)nc1C#N", "activity change, negative = inhibition": "inactive: 19.7%"},
      {"molecule": "COc1cc(N2C(=O)c3ccccc3C2=O)c2ncccc2c1", "Potency": "inconclusive: 25.1 µM [inhibitor, single point]"},
      {"molecule": "O=C(NC1CCCc2c1cnn2-c1ccc(F)cc1F)c1ccccn1", "note": "(configuration not stated)", "Potency": "inconclusive: 1.78 µM [inhibitor, full curve]"},
      {"molecule": "O=C(C1CCN(c2nc(-c3ccc(Br)cc3)cs2)CC1)N1CCOCC1", "activity change, negative = inhibition": "inactive: 9.99%"},
      {"molecule": "COc1ccc(C2Nc3ccccc3C(=O)N2CCc2ccccc2)cc1COc1ccc(NC(C)=O)cc1", "note": "(configuration not stated)", "activity change, negative = inhibition": "inactive: -17%"},
      {"molecule": "N#Cc1c(-c2cccc(Br)c2)no[n+]1[O-]", "Potency": "inconclusive: 10 µM [inhibitor, partial curve, poor fit]"},
      {"molecule": "CC(C)c1ccc(S(=O)(=O)c2cnc(SCC(=O)Nc3ccc4c(c3)OCCO4)[nH]c2=O)cc1", "Potency": "inconclusive: 3.55 µM [inhibitor, full curve, poor fit]"},
      {"molecule": "Clc1cccc(COc2cncc(N3CCNCC3)n2)c1", "activity change, negative = inhibition": "inactive: -5.84%"},
      {"molecule": "O=C(O)c1ccccc1SC1=NS(=O)(=O)c2ccccc21", "Potency": "inconclusive: 5.62 µM [inhibitor, partial curve] and inconclusive: 14.1 µM [inhibitor, partial curve]"},
      {"molecule": "O=C(Nc1cncc(-c2cccc3ccccc23)c1)c1cccs1", "Potency": "inconclusive: 3.55 µM [inhibitor, partial curve, poor fit]"},
      {"molecule": "O=C(O)c1cc(O[C@@H]2O[C@H](CO[C@@H]3OC[C@@H](O)[C@H](O)[C@H]3O)[C@@H](O)[C@H](O)[C@H]2O)c2ccccc2c1O", "Potency": "inconclusive: 5.01 µM [inhibitor, partial curve]"},
      {"molecule": "CCOC(=O)[C@H](CCc1ccccc1)N[C@@H](C)C(=O)N1C(=O)N(C)C[C@H]1C(=O)O", "activity change, negative = inhibition": "inactive: -10.9%"},
      {"molecule": "COc1ccc(C2Nc3ccccc3C(=O)N2Cc2ccco2)cc1COc1ccccc1", "note": "(configuration not stated)", "Potency": "inconclusive: 1 µM [inhibitor, full curve, poor fit] and inconclusive: 28.2 µM [inhibitor, partial curve, poor fit]"},
      {"molecule": "O=C(Cn1nc(-c2ccc(F)cc2)ccc1=O)NCCc1ccccc1", "Potency": "inconclusive: 3.98 µM [inhibitor, partial curve]"},
      {"molecule": "O=C(Nc1ccc(S(=O)(=O)C(F)(F)F)cc1)C1=CCN(c2ncccc2C(F)(F)F)CC1", "Potency": "active: 25.1 µM"},
      {"molecule": "CN(C)c1cccc(Oc2cnc(Nc3cccc(O)c3)nc2)c1", "Potency": "inconclusive: 35.5 µM [inhibitor, single point]"},
      {"molecule": "O=c1c2ccccc2nc2sc(Nc3ccc(Sc4ccccc4)cc3)nn12", "Potency": "inconclusive: 10 µM [inhibitor, partial curve, poor fit]"},
      {"molecule": "COc1ccc(-c2c(-c3cc(C(=O)O)ccn3)ncn2C)cc1", "Potency": "inconclusive: 12.6 µM [inhibitor, partial curve, poor fit]"},
      {"molecule": "Nc1cccc(CNC(=O)c2ccc(Oc3ccc(OCc4cccc(F)c4)cc3)nc2)c1", "Potency": "inconclusive: 31.6 µM [inhibitor, single point]"},
      {"molecule": "CCN(CC)CCNC(=O)c1ccc(N)cc1", "Potency": "inconclusive: 35.5 µM [inhibitor, single point]"},
      {"molecule": "CN[C@@H]1[C@H](O[C@H]2[C@H](O[C@@H]3[C@@H](O)[C@H](O)[C@@H](N=C(N)N)[C@H](O)[C@H]3N=C(N)N)O[C@@H](C)[C@]2(O)C=O)O[C@@H](CO)[C@H](O)[C@H]1O", "Potency": "inconclusive: 10 µM [inhibitor, single point]"},
      {"molecule": "CSc1cc2c(s1)c1cnn(Cc3cccc(N)c3)c(=O)c1n2C", "Potency": "inconclusive: 17.8 µM [inhibitor, partial curve, poor fit]"},
      {"molecule": "Brc1ccc([C@H]2CN3CCSC3=N2)cc1", "Potency": "inconclusive: 28.2 µM [inhibitor, partial curve, poor fit]"},
      {"molecule": "O=C(CN1C(=O)N/C(=C\\c2cccn2-c2cccc(C(=O)O)c2)C1=O)Nc1ccc(F)cc1", "Potency": "inconclusive: 12.6 µM [inhibitor, partial curve]"},
      {"molecule": "Cc1nnc(-c2sc(NC(=O)[C@H](C(C)C)n3c(=O)[nH]c4ccccc4c3=O)nc2C)o1", "Potency": "inconclusive: 31.6 µM [inhibitor, single point]"},
      {"molecule": "CC(C)N1CCc2c(sc(NC(=O)C3CC3)c2-c2nc3ccccc3s2)C1", "Potency": "inconclusive: 22.4 µM [inhibitor, single point]"},
      {"molecule": "COc1ccc(CC2NCCc3c2[nH]c2ccc(C)cc32)cc1OC", "note": "(configuration not stated)", "activity change, negative = inhibition": "inactive: -17.2%"},
      {"molecule": "COc1ccccc1Nc1cc2ccccc2c(=O)[nH]1", "Potency": "inconclusive: 0.355 µM [inhibitor, full curve, poor fit]"},
      {"molecule": "Cc1ccnc(NC(=S)N2CCN(C)CC2)c1", "Potency": "inconclusive: 2.82 µM [inhibitor, partial curve, poor fit]"},
      {"molecule": "CCCN(CCN1CCN(c2ccccc2OC)CC1)C1CCc2ncsc2C1", "note": "(configuration not stated)", "Potency": "inconclusive: 28.2 µM [inhibitor, single point]"},
      {"molecule": "C=C(C)C(=O)O[C@H]1[C@H]2C(=C)C(=O)O[C@@H]2/C=C(\\CO)CC/C=C(/C=O)[C@@H]1O", "activity change, negative = inhibition": "inactive: -17.8%"}
    ]}
  ]
}
